Results as given in paper PMC4336329 (PLoS ONE, 2015).
Screen size: about 310,000 compounds; about 2,200 (0.71%) showed an effect of 50% or more. Effects have a minus sign here. This is one part of the list.

These compounds were tested against human ether-à-go-go-related gene (hERG) potassium channel (human, UniProt Q12809) (assay: primary screen, population patch clamp on CHO cells stably expressing hERG).
human ether-à-go-go-related gene (hERG) potassium channel, sequence (Q12809 whole entry, looked up): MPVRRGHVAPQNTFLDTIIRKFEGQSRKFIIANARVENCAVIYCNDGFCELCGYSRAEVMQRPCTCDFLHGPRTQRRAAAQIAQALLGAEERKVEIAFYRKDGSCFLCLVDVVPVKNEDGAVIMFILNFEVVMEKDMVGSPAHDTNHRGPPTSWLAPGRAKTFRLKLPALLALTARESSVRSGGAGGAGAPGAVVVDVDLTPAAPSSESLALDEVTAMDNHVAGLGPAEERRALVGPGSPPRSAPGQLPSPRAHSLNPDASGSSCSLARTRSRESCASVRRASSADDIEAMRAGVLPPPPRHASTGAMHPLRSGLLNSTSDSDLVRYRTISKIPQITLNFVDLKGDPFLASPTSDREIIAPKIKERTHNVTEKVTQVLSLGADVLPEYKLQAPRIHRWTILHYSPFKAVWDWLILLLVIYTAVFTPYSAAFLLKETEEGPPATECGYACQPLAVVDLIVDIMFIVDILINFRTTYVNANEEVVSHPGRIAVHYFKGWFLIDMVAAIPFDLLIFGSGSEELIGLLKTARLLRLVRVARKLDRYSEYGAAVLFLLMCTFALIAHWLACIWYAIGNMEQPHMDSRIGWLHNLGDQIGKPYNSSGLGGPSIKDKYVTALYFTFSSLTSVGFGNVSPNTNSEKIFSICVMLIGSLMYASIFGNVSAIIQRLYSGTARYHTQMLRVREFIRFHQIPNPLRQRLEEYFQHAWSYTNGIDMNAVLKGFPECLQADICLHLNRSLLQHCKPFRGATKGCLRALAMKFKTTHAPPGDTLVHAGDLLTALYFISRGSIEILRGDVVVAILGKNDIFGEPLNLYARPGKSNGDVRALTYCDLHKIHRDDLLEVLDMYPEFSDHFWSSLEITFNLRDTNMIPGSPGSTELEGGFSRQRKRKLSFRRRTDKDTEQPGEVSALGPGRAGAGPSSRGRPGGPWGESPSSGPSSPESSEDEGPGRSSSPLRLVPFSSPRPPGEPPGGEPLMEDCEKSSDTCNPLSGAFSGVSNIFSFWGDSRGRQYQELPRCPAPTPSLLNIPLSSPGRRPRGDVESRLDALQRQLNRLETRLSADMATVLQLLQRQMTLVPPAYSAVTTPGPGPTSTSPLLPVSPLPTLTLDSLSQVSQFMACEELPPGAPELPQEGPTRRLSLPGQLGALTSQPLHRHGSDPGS

Question: With COc1ccccc1NC(=O)CSc1nc2nccnc2c(=O)n1Cc1cccs1 as the compound, how does the “hERG current change (%, negative = inhibition) at 1uM” value read?
Answer: Its value is -19.1%.

Question: Which “hERG current change (%, negative = inhibition) at 1uM” value does the source give for O=C(NC(N1CCOCC1)C(Cl)(Cl)Cl)c1ccccc1Cl (stereo not shown) here?
Answer: The value was 5.58%.

Question: O=C(Nc1ccccc1-c1nc2ccccc2s1)c1cccnc1Cl was tested. Which “hERG current change (%, negative = inhibition) at 1uM” value did it give?
Answer: The value was 5.88%.

Question: Which “hERG current change (%, negative = inhibition) at 1uM” value does the source give for CN(C)c1ccc(NC2=C([N+](=O)[O-])CS(=O)(=O)C2)cc1 here?
Answer: Its value is 3.75%.

Question: How did the “hERG current change (%, negative = inhibition) at 1uM” value turn out when O=C(Cc1csc(-c2ccccc2)n1)NCc1ccco1 was run?
Answer: The value was 8.73%.

Question: O=C1c2ccccc2C2=Nc3ccccc3SC(c3ccccc3F)C12 (stereo not shown) was tested. Which “hERG current change (%, negative = inhibition) at 1uM” value did it give?
Answer: Its value is 7.51%.

Question: Cc1c(C(=O)O)oc2c1C(O)CC(C)(C)C2 (stereo not shown) was tested. Which “hERG current change (%, negative = inhibition) at 1uM” value did it give?
Answer: Its value is 8.24%.

Question: Which “hERG current change (%, negative = inhibition) at 1uM” value does the source give for O=C(c1ccc(-n2cncn2)c([N+](=O)[O-])c1)N1CCN(S(=O)(=O)c2ccccc2F)CC1 here?
Answer: The value was 5.37%.

Question: With CCS(=O)(=O)c1nc(S(=O)(=O)c2ccc(C)cc2)c(NCCCn2ccnc2)s1 as the compound, how does the “hERG current change (%, negative = inhibition) at 1uM” value read?
Answer: Its value is 10.5%.

Question: With CCOC(=O)c1c(S(=O)(=O)N2CCN(c3ccc(C(C)=O)cc3)CC2)c(C)n(C)c1C as the compound, how does the “hERG current change (%, negative = inhibition) at 1uM” value read?
Answer: The value was 13%.

Question: O=C(NCc1cccnc1)/C(=N\O)c1ccccc1 was tested. Which “hERG current change (%, negative = inhibition) at 1uM” value did it give?
Answer: The value was 1.64%.

Question: How did the “hERG current change (%, negative = inhibition) at 1uM” value turn out when COc1ccc(-c2nc(CS(=O)CC(=O)NCCC3=CCCCC3)c(C)o2)cc1 (stereo not shown) was run?
Answer: The value was 2.52%.

Question: Which “hERG current change (%, negative = inhibition) at 1uM” value does the source give for CC(=O)NC1C(Oc2ccccc2C)OC(CO)C(O)C1O (stereo not shown) here?
Answer: Its value is 7.79%.

Question: Which “hERG current change (%, negative = inhibition) at 1uM” value does the source give for CCOC(=O)c1sc(C)c2c1NC1(CCCCC1)NC2=O here?
Answer: The value was -8.48%.

Question: Which “hERG current change (%, negative = inhibition) at 1uM” value does the source give for COC(=O)C(C)Sc1nc(N)c(NC(=O)c2ccco2)c(=O)[nH]1 (stereo not shown) here?
Answer: Its value is 10.1%.

Question: With O=C(O)COc1ccccc1/C=N/NC(=O)c1cccc(S(=O)(=O)N2CCOCC2)c1 as the compound, how does the “hERG current change (%, negative = inhibition) at 1uM” value read?
Answer: Its value is 7.13%.

Question: How did the “hERG current change (%, negative = inhibition) at 1uM” value turn out when Cc1cc(C)cc(Nc2nc3ccccc3c(=O)[nH]2)c1 was run?
Answer: Its value is 15.6%.

Question: How did the “hERG current change (%, negative = inhibition) at 1uM” value turn out when COc1ccccc1CN1C(=O)c2cccc3cccc(c23)C1=O was run?
Answer: Its value is 2.75%.

Question: How did the “hERG current change (%, negative = inhibition) at 1uM” value turn out when S=c1[nH]nc(-c2cc(-c3ccco3)[nH]n2)n1-c1cccc2ccccc12 was run?
Answer: The value was 3.73%.

Question: How did the “hERG current change (%, negative = inhibition) at 1uM” value turn out when C/C(=N\NC(=S)NCc1ccccc1)c1ccc(Br)cc1 was run?
Answer: Its value is 17.2%.

Question: With Cc1ccnc2nc(C(=O)OCC(=O)Nc3ccc4c(c3)OC(F)(F)O4)nn12 as the compound, how does the “hERG current change (%, negative = inhibition) at 1uM” value read?
Answer: Its value is -11.3%.

Question: Which “hERG current change (%, negative = inhibition) at 1uM” value does the source give for Cc1onc(-c2ccccc2Cl)c1C(=O)NCc1ccccn1 here?
Answer: The value was 13.7%.

Question: Which “hERG current change (%, negative = inhibition) at 1uM” value does the source give for CCC(C)N1CC(=O)N2C(c3ccc(OC)cc3OC)c3[nH]c4ccccc4c3C[C@H]2C1=O (stereo partly shown) here?
Answer: Its value is 8.24%.

Question: COc1ccc(C2CC(c3cccs3)=NN2C(=O)c2ccccc2)cc1OC (stereo not shown) was tested. Which “hERG current change (%, negative = inhibition) at 1uM” value did it give?
Answer: Its value is -19.2%.

Question: How did the “hERG current change (%, negative = inhibition) at 1uM” value turn out when CCOc1ccc(C(NC(=O)/C=C/c2ccco2)c2ccc(OC)c(OC)c2)cc1 (stereo not shown) was run?
Answer: Its value is 1.81%.

Question: CCn1cc(C(=O)N2CCC3(CC2)OCCO3)c(=O)c2cc(S(=O)(=O)N3CCCC3)ccc21 was tested. Which “hERG current change (%, negative = inhibition) at 1uM” value did it give?
Answer: The value was 15.9%.

Question: Which “hERG current change (%, negative = inhibition) at 1uM” value does the source give for Cc1cc(C)n(Cc2ccc(C(=O)O)cc2)n1 here?
Answer: Its value is 15%.

Question: CCC(C)N1C(=O)/C(=C/c2ccc3c(c2)CCN3CCCCl)C(=O)NC1=S (stereo not shown) was tested. Which “hERG current change (%, negative = inhibition) at 1uM” value did it give?
Answer: The value was 8.23%.

Question: Which “hERG current change (%, negative = inhibition) at 1uM” value does the source give for CCn1[nH]c(=O)c(=Nc2c(C)n(C)n(-c3ccccc3)c2=O)cc1-c1ccc(Cl)cc1 here?
Answer: Its value is -0.399%.

Question: Cc1cccc(N(C(=O)CCC(=O)Nc2cc(C)on2)C(C(=O)NC2CCCC2)c2cccnc2)c1 (stereo not shown) was tested. Which “hERG current change (%, negative = inhibition) at 1uM” value did it give?
Answer: Its value is 28.3%.

Question: For CCC(c1nnnn1CCC(C)C)N1CCC(C(N)=O)CC1 (stereo not shown), which “hERG current change (%, negative = inhibition) at 1uM” value is on record?
Answer: Its value is 5.03%.

Question: With Cc1ccc(N2C(N)=C(C#N)C(c3ccsc3)C3=C2CC(C)(C)CC3=O)cc1 (stereo not shown) as the compound, how does the “hERG current change (%, negative = inhibition) at 1uM” value read?
Answer: The value was 12.1%.

Question: How did the “hERG current change (%, negative = inhibition) at 1uM” value turn out when COCCN(C(=O)c1cc2c(s1)CCC2)c1c(N)n(CC(C)C)c(=O)[nH]c1=O was run?
Answer: The value was 6.68%.

Question: Which “hERG current change (%, negative = inhibition) at 1uM” value does the source give for COC(=O)c1sccc1NC(=O)NC1CCCCC1 here?
Answer: Its value is 7.73%.

Question: CC1CCN(C(=O)CCc2nnc(-c3ccccc3)o2)CC1 was tested. Which “hERG current change (%, negative = inhibition) at 1uM” value did it give?
Answer: Its value is 3.92%.

Question: For COc1ccc(C(=O)NNC(=O)C(=O)Nc2ccc(C)c(Cl)c2)cc1, which “hERG current change (%, negative = inhibition) at 1uM” value is on record?
Answer: Its value is 5.83%.

Question: With COC(=O)c1ccccc1NC(=S)NC(=O)COc1ccccc1 as the compound, how does the “hERG current change (%, negative = inhibition) at 1uM” value read?
Answer: The value was 16.9%.

Question: With O=C(NC(=S)NN1CCCCC1c1cccnc1)c1ccc(Cl)cc1Cl (stereo not shown) as the compound, how does the “hERG current change (%, negative = inhibition) at 1uM” value read?
Answer: Its value is 10.1%.

Question: For O=C(O)c1ccc(Cn2cnc3scc(-c4ccccc4)c3c2=O)cc1, which “hERG current change (%, negative = inhibition) at 1uM” value is on record?
Answer: The value was 8.99%.

Question: Which “hERG current change (%, negative = inhibition) at 1uM” value does the source give for O=C(Nc1ccc(C#Cc2ccccc2)cc1)C1CC1 here?
Answer: Its value is 10.5%.

Question: Which “hERG current change (%, negative = inhibition) at 1uM” value does the source give for NC(=O)[C@H]1CC2(CC(c3cccc(NC(=O)CC(c4ccccc4)c4ccccc4)c3)=NO2)CN1C(=O)CC(c1ccccc1)c1ccccc1 (stereo partly shown) here?
Answer: Its value is 14.8%.

Question: With NS(=O)(=O)c1ccc(NC(=O)CSc2ccccc2)cc1 as the compound, how does the “hERG current change (%, negative = inhibition) at 1uM” value read?
Answer: The value was 1.83%.

Question: For Cc1cc(=O)n2nc(N3CCCC(C(=O)NC(C)c4ccccc4)C3)sc2n1 (stereo not shown), which “hERG current change (%, negative = inhibition) at 1uM” value is on record?
Answer: Its value is 10.9%.

Question: How did the “hERG current change (%, negative = inhibition) at 1uM” value turn out when O=C(NCCCN1CCCCC1)C1CCC(=O)N1CCc1ccccc1 (stereo not shown) was run?
Answer: Its value is 18.4%.

Question: CCOC(=O)C1=C(C)NC(=O)NC1 was tested. Which “hERG current change (%, negative = inhibition) at 1uM” value did it give?
Answer: Its value is 0.299%.

Question: Cc1ccc(C2CC(c3cccc(C)c3)n3ncnc3N2)cc1 (stereo not shown) was tested. Which “hERG current change (%, negative = inhibition) at 1uM” value did it give?
Answer: Its value is 8.91%.

Question: For Cc1ccc(C)c(NC(=S)N/N=C2/CCCCc3ccccc32)c1, which “hERG current change (%, negative = inhibition) at 1uM” value is on record?
Answer: The value was 10.6%.

Question: O=C(CN1CCN(Cc2ccccc2)CC1)N/N=C/c1cccs1 was tested. Which “hERG current change (%, negative = inhibition) at 1uM” value did it give?
Answer: The value was 8.72%.

Question: With CC(C)Cc1nnc(NC(=O)CCC(=O)N2CCN(C3CCCC3)CC2)s1 as the compound, how does the “hERG current change (%, negative = inhibition) at 1uM” value read?
Answer: The value was 4.55%.

Question: For CC(C)CCNC(=O)CN(C(=O)Cn1nnc(-c2ccccc2F)n1)c1cccc2c1CCCC2, which “hERG current change (%, negative = inhibition) at 1uM” value is on record?
Answer: The value was -1.01%.

Question: Which “hERG current change (%, negative = inhibition) at 1uM” value does the source give for O=C(CCCN1C(=O)C(c2ccccc2)Oc2cccnc21)NCc1ccc(F)cc1 (stereo not shown) here?
Answer: Its value is 6.4%.

Question: COc1ccc(NC(=S)N(CCCOC(C)C)C2CCN(C(C)=O)CC2)cc1Cl was tested. Which “hERG current change (%, negative = inhibition) at 1uM” value did it give?
Answer: Its value is 10.7%.

Question: CCN=C1SC(C(=O)Nc2cccc(OCC)c2)CC(=O)N1CC (stereo not shown) was tested. Which “hERG current change (%, negative = inhibition) at 1uM” value did it give?
Answer: The value was 3.05%.

Question: Cc1ccc(C)c(C(=O)CCC(=O)NNC(=O)Cn2nc(C)cc2C)c1 was tested. Which “hERG current change (%, negative = inhibition) at 1uM” value did it give?
Answer: The value was 2.19%.

Question: For CCc1nnc(NC(=O)CSc2nnc(Cc3ccccc3)n2-c2ccc(OC)cc2)s1, which “hERG current change (%, negative = inhibition) at 1uM” value is on record?
Answer: Its value is 8.85%.
